Results from the supplement of paper PMC4967469.

Experiments:
Assay in all cases: Viability of human cancer cell lines after 72 h of drug (GDSC screen)
[1] = compound: CC(=O)O[C@H]1C(=O)[C@@]2(C)[C@H]([C@H](OC(=O)c3ccccc3)[C@]3(O)C[C@H](OC(=O)[C@H](O)[C@@H](NC(=O)c4ccccc4)c4ccccc4)C(C)=C1C3(C)C)[C@]1(OC(C)=O)CO[C@@H]1C[C@@H]2O [Paclitaxel]; conditions: top dose 0.1024 µM
Procedure: (§1)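 Human cancer cell lines in 384-well plates, medium with 10% serum, drug for 72 h over a 256-fold dose range (nine 2-fold or five 4-fold steps up to the top dose). Adherent lines were fixed and stained with the nucleic acid dye Syto60, suspension lines read with resazurin; signal relative to control wells, capped at 0 and 100%. One two-parameter sigmoid per drug and line, fitted in a mixed model over all curves with the slope shared within a line.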

[2] = compound: CC(C)C[C@H](NC(=O)[C@H](Cc1ccccc1)NC(=O)c1cnccn1)B(O)O [Bortezomib]; conditions: top dose 0.02 µM
Procedure: as §1

[3] = compound: COC1=CC(c2cc3ccccc3[nH]2)=N/C1=C\c1[nH]c(C)cc1C [Obatoclax mesylate]; conditions: top dose 16 µM
Procedure: as §1

[4] = compound: COCC(=O)NC/C=C/c1ccc2ncnc(Nc3ccc(Oc4ccc(C)nc4)c(C)c3)c2c1 [CP724714]; conditions: top dose 10.24 µM; top dose inferred
Procedure: as §1

[5] = compound: Cc1cccc(Nc2nc(-c3ccncc3)cs2)c1 [STF-62247]; conditions: top dose 10.24 µM; top dose inferred
Procedure: as §1

[6] = compound: Cc1cnc(CNC(=O)c2c(=O)c3ccc(N4CCCN(C)CC4)nc3n3c2sc2ccccc23)cn1 [CX-5461]; conditions: top dose 10.24 µM; top dose inferred
Procedure: as §1

Cell Line | AUC [1] | IC50 [1] [nM] | AUC [2] | IC50 [2] [nM] | AUC [3] | IC50 [3] [nM] | AUC [4] | IC50 [4] [nM] | AUC [5] | IC50 [5] [nM] | AUC [6] | IC50 [6] [nM]
A253 (head and neck, adherent) | 0.663 | 17.9 | 0.446 | 0.895 | 0.376 | 459 | 0.98 | > 10200 | 0.988 | > 10200 | 0.976 | > 10200
A388 (skin, adherent) | 0.526 | 7.63 | 0.33 | 0.389 | 0.124 | < 62.5 | 0.973 | > 10200 | 0.983 | > 10200 | 0.871 | > 10200
ALL-PO (lymphoblastic leukaemia, suspension) | 0.521 | 7.35 | 0.623 | 2.79 | 0.265 | 204 | 0.945 | > 10200 | 0.908 | > 10200 | 0.644 | 1640
ALL-SIL (T-cell leukaemia, suspension) | 0.446 | 4.66 | 0.401 | 0.697 | 0.102 | 66.1 | 0.985 | > 10200 | 0.944 | > 10200 | 0.733 | 2620
AMO-1 (haematopoietic neoplasm, suspension) | 0.532 | 7.71 | 0.341 | 0.487 | 0.317 | 334 | 0.971 | > 10200 | 0.902 | 10000 | 0.939 | > 10200
ARH-77 (myeloma, suspension) | 0.73 | 28.1 | 0.576 | 2 | 0.243 | 188 | 0.973 | > 10200 | 0.966 | > 10200 | 0.865 | 8460
ATN-1 (T-cell lymphoblastic leukaemia, suspension) | 0.485 | 5.83 | 0.645 | 3.07 | 0.272 | 237 | 0.978 | > 10200 | 0.793 | 4350 | 0.899 | > 10200
BB30-HNC (head and neck, adherent) | 0.385 | 3.11 | 0.404 | 0.688 | 0.064 | < 62.5 | 0.954 | > 10200 | 0.978 | > 10200 | 0.699 | 2290
BB49-HNC (head and neck, adherent) | 0.969 | > 102 | 0.431 | 0.752 | 0.586 | 1890 | 0.974 | > 10200 | 0.972 | > 10200 | 0.977 | > 10200
BB65-RCC (kidney, adherent) | 0.707 | 27.1 | 0.329 | 0.385 | 0.252 | 172 | 0.981 | > 10200 | 0.973 | > 10200 | 0.968 | > 10200
BC-3 (B-cell lymphoma, suspension) | 0.632 | 14.1 | 0.621 | 2.58 | 0.548 | 1330 | 0.959 | > 10200 | 0.832 | 5590 | 0.974 | > 10200
BE2-M17 (neuroblastoma, adherent) | 0.903 | > 102 | 0.782 | 8.62 | 0.57 | 1560 | 0.948 | > 10200 | 0.967 | > 10200 | 0.987 | > 10200
BE-13 (lymphoblastic leukaemia, suspension) | 0.512 | 6.9 | 0.597 | 2.27 | 0.21 | 150 | 0.972 | > 10200 | 0.705 | 2320 | 0.755 | 3270
BL-41 (Burkitt lymphoma, suspension) | 0.433 | 4.39 | 0.484 | 1.14 | 0.069 | < 62.5 | 0.868 | 5860 | 0.938 | > 10200 | 0.713 | 2150
BV-173 (chronic myeloid leukaemia, suspension) | 0.555 | 8.87 | 0.755 | 6.08 | 0.195 | 144 | 0.981 | > 10200 | 0.985 | > 10200 | 0.211 | 103
Becker (glioma, adherent) | 0.553 | 9.11 | 0.575 | 2.06 | 0.566 | 1550 | 0.975 | > 10200 | 0.975 | > 10200 | 0.978 | > 10200
C2BBe1 (large intestine, adherent) | 0.895 | > 102 | 0.592 | 2.31 | 0.517 | 1120 | 0.979 | > 10200 | 0.978 | > 10200 | 0.896 | > 10200

Lines with a small IC50 respond at low doses; fits outside the tested doses are given as limits. For AUC the same curve is integrated over the 256-fold range of doses and scaled to a fraction: 1 means no effect, lower means more sensitive. For part of these data: Any top dose called inferred comes from the curve model; the source does not state it.
